From PubChem BioAssay AID504466 (National Center for Advancing Translational Sciences (NCATS), 2011)
Screen size: about 330,000 compounds; about 4,200 (1.3%) were called active. The shares of active, inactive and inconclusive entries below differ from those in the screen. Calls come from the whole dose curve; as a rule, active = well fitted activation curve with a large enough effect; inconclusive = small, poorly fitted or top-dose-only effect; inactive = no such curve, though single readings can be large or run the other way. Where the call is inconclusive, the potency comes from a doubtful curve fit.

Experiment: qHTS screen for small molecules that induce genotoxicity in human embryonic kidney (HEK293T) cells expressing luciferase-tagged ELG1; note: nearly all actives have a fitted effect of over 60% in size; for activity change, positive = activation: % of control where 0% means no effect
Conditions: HEK293T ELG1-luciferase reporter, luminescence, 16 h; series mostly up to 46 µM; activity change, positive = activation: at the top concentration
Method in brief: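 Screening used a luciferase reporter fused to human ELG1 in HEK293T cells. Luminescence was read on a CCD plate imager after 16 hr exposure and 30 min ONE-Glo incubation.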
Potency is the fitted concentration of half-maximal effect; tags give direction and shape of the fitted curve.

| Compound | Potency | activity change, positive = activation |
| --- | --- | --- |
| CC(C)(C)n1cnc2cc(NC(=O)c3cccs3)ccc21 | inconclusive: 5.17 µM [activator, partial curve] |  |
| COc1ccc(N2C(=O)CC(Sc3ncccc3C(=O)O)C2=O)cc1 (centres undefined) |  | inactive: -0.0885% |
| O=C(NNC(=S)Nc1ccccc1Cl)c1ccccc1Br | active: 3.66 µM |  |
| CN(c1ccccc1)S(=O)(=O)c1ccc(Cl)c(C(=O)Nc2nc3ccccc3[nH]2)c1 |  | inactive: -13.2% |
| COc1ccc(C2CC(=O)N(C)c3ccccc3S2)cc1 (centres undefined) | active: 18.3 µM |  |
| COc1ccc(-n2nc(C(=O)NCC(=O)N3CCCCCC3)c3ccccc3c2=O)c(OC)c1 | inconclusive: 20.6 µM [activator, single point] |  |
| S=C(NCC1CCCO1)Nc1ccc(Cl)cc1Cl (centres undefined) | inconclusive: 18.4 µM [activator, partial curve, poor fit] |  |
| COc1ccccc1CNC(=O)CCCOc1cc(=O)n(C)c2ccccc12 | inconclusive: 20.6 µM [activator, single point] |  |
| COC(=O)[C@H](CCSC)NC(=O)Nc1cccc(C)c1C |  | inactive: -0.541% |
| O=C(Nc1nc2ccccc2s1)C1CCCO1 (centres undefined) | active: 5.8 µM |  |
| O=c1c(Br)c(N2CCOCC2)cnn1-c1ccccc1 | inconclusive: 20.6 µM [activator, single point] |  |
| Cn1cccc1/C=C1\SC(=O)N(c2ccccc2)C1=O | inconclusive: 5.17 µM [activator, partial curve] |  |
| c1ccc(-c2ccc(-c3cnc4n3CCCCC4)cc2)cc1 | inconclusive: 5.17 µM [activator, full curve] |  |
| COC(=O)CCN1CCc2cc(N=Nc3ccc([N+](=O)[O-])cc3)ccc21 | inconclusive: 2.31 µM [activator, full curve] |  |
| COc1ccc(-n2c(C)cc(C(=O)CSc3ccc(NC(C)=O)cc3)c2C)cc1 |  | inactive: 4.33% |
| O=C(COc1ccc(F)cc1)Nc1nc2c(s1)CCCC2 | inconclusive: 23.1 µM [activator, single point] |  |
| CSc1ncccc1C(=O)OCC(=O)c1cc(C)n(CC2CCCO2)c1C (centres undefined) | inconclusive: 1.64 µM [activator, partial curve] |  |
| O=C(N/N=C/C(Cl)=C/c1ccccc1)c1ccco1 | inconclusive: 8.2 µM [activator, partial curve] |  |
| O=C(NC(=S)Nc1nc2ccccc2s1)c1cccs1 | inconclusive: 4.11 µM [activator, partial curve] |  |
| CCCCCCn1c(COc2ccccc2F)nnc1SCC(=O)N1c2ccccc2NC(=O)C1(C)C |  | inactive: -6.39% |
| COc1cccc(/C=C/C(=O)c2cccc([N+](=O)[O-])c2)c1OC | inconclusive: 29.1 µM [activator, single point] |  |
| Fc1ccc(Nc2ccnc(Nc3ccc(F)cc3)n2)cc1 | inconclusive: 23.1 µM [activator, partial curve, poor fit] |  |
| O=C(c1cn(Cc2ccccc2)nc1-c1ccccc1)N1CCN(c2ccccn2)CC1 |  | inactive: -3.28% |
| CCn1c(/C=C/c2ccc(O)cc2)nc2ccccc2c1=O |  | inactive: -11.4% |
| Nc1nc2n(n1)C(=O)CC(c1ccccc1)N2 (centres undefined) |  | inactive: 6.27% |

| Compound | Potency | activity change, positive = activation |
| --- | --- | --- |
| CCN(Cc1ccccc1)C(=O)C1CCN(c2ncnc3c2nc2n3CCCCC2)CC1 |  | inactive: -8.62% |
| CC1(C)CNc2cc([N+](=O)[O-])ccc2S1 | inconclusive: 23.1 µM [activator, partial curve, poor fit] |  |
| COc1ccc(Cl)c2c1[nH]c1nc(SCc3cccnc3)nnc12 |  | inactive: 13.8% |
| N#Cc1c(N)nc2c(c1-c1cccnc1)CCCCC2 |  | inactive: -17.5% |
| CC(=O)Oc1ccc(NC(=O)CSc2ccccc2)cc1 | active: 14.6 µM |  |
| CC(C)(C)n1cnc2cc(NC(=O)c3ccc(Cl)cc3)ccc21 | active: 2.91 µM |  |
| CCOc1cc(/C=N\Nc2ccc([N+](=O)[O-])cc2)ccc1OCC(=O)Nc1ccc(C)c(C)c1 | inconclusive: 29.1 µM [activator, partial curve, poor fit] |  |
| COCCNC(=O)C(=O)N/N=C/c1cccs1 |  | inactive: -6.64% |
| O=C(Nc1ccc(N2CCOCC2)nc1)c1ccccc1Cl | inconclusive: 18.3 µM [activator, partial curve, poor fit] |  |
| Cc1cc(/C=C2\NC(=S)NC2=O)c(C)n1-c1cccnc1 |  | inactive: 9.6% |
| CN(C)c1oc(-c2ccccc2Cl)nc1C#N | inconclusive: 29.1 µM [activator, partial curve, poor fit] |  |
| O=C1C2C3C=CC(C4CC34)C2C(=O)N1/N=C/c1ccc([N+](=O)[O-])o1 (centres undefined) | inconclusive: 23.1 µM [activator, single point] |  |
| Cc1nn(CCOc2ccccc2)c(=O)n1-c1c(F)cccc1F | inconclusive: 13 µM [activator, partial curve, poor fit] |  |
| CCN(CC(=O)NCc1cccs1)C(=O)c1ccccc1Cl | inconclusive: 6.51 µM [activator, partial curve, poor fit] |  |
| CCC1CSC(=Nc2ccc(C)cc2)N1C(=O)CN1C(=O)NC2(CCCC2)C1=O (centres undefined) | active: 2.59 µM |  |
| Cc1cc(SCC(=O)NN)c2cc(Br)ccc2n1 |  | inactive: 2.13% |
| O=C1CSC(=S)N1/N=C/c1ccc(O)c([N+](=O)[O-])c1 | inconclusive: 0.116 µM [activator, single point] |  |
| COc1cc2sc(NC(=O)c3ccco3)nc2cc1Cl | active: 2.31 µM |  |
| Cc1nnc(NC(=O)c2sc3ccccc3c2Cl)s1 | inconclusive: 1.78 µM [activator, partial curve, poor fit] |  |
| Cc1ccc(-n2c(C)cc(/C=N/NC(=O)c3ccncc3)c2C)cc1 | inconclusive: 23.1 µM [activator, partial curve, poor fit] |  |
| Fc1cccc2sc(Nc3nnc(-c4ccco4)o3)nc12 | active: 2.59 µM |  |
| O=C(Nc1nnc(SCC(=O)N2CCCc3ccccc32)s1)c1ccc2ccccc2c1 | inconclusive: 5.8 µM [activator, full curve, poor fit] |  |
| Cc1cc(C(=O)COC(=O)c2ccc(Cl)c(S(N)(=O)=O)c2)c(C)n1CC1CCCO1 (centres undefined) | inconclusive: 2.06 µM [activator, full curve] |  |
| COc1ccc2cc(C(=O)N/N=C/c3sc4ccccc4c3O)ccc2c1 | inconclusive: 29.1 µM [activator, single point] |  |
| Cc1ccc2nc(NC(=O)Cc3cccs3)sc2c1 | inconclusive: 5.8 µM [activator, partial curve] |  |

| Compound | Potency | activity change, positive = activation |
| --- | --- | --- |
| O=C(Nc1ccc2c(c1)CCC2)c1cc2ccccc2o1 | active: 1.64 µM |  |
| O=C(Nc1ccccc1)Nc1ccc2c(c1)CCC2 | inconclusive: 3.66 µM [activator, partial curve] |  |
| COc1cc(/C=C2/C(=N)N3C(=NC2=O)SN=C3S(=O)(=O)C(C)C)ccc1OC(=O)c1ccco1 |  | inactive: 5.05% |
| Nc1ncc(Br)cc1N=Cc1ccccc1 | inconclusive: 16.4 µM [activator, single point] |  |
| Cc1cc(Cl)ccc1OCC(=O)Nc1cccnc1 | inconclusive: 20.6 µM [activator, single point] |  |
| O=C(c1cc(-c2ccc(Cl)cc2)on1)N1CCCC1 | active: 2.91 µM |  |
| COc1ccc(O)c(C(=O)CC(=O)c2ccccc2)c1 | inconclusive: 1.46 µM [activator, partial curve] |  |
| C=CCN1C(=O)C(Cc2cccc(Cl)c2)S/C1=N/N=C/c1ccco1 (centres undefined) | inconclusive: 32.6 µM [activator, partial curve, poor fit] |  |
| O=C(COc1ccc(Br)cc1Cl)NC(=O)NC1CCCC1 | inconclusive: 23.1 µM [activator, partial curve, poor fit] |  |
| COC(C/C=C/[C@@H](O)COCc1ccccc1)OC |  | inactive: 3.8% |
| Cc1cccc(N2CCN(C(=O)C(Cc3ccccc3)n3cccc3)CC2)c1C (centres undefined) | inconclusive: 20.6 µM [activator, single point] |  |
| CC1=CC(C)=Nc2ccccc2N1 | active: 16.4 µM |  |
| NC(=O)c1cccc(NC(=O)Nc2ccc(Cl)cc2)c1 | inconclusive: 23.1 µM [activator, single point] |  |
| CCOC(=O)c1nc2ccccc2c(=O)[nH]1 | inconclusive: 25.9 µM [activator, partial curve, poor fit] |  |
| CC(=O)c1ccc(Nc2nc(-c3cccnc3)cs2)cc1 | inconclusive: 8.2 µM [activator, partial curve] |  |
| Cc1ccnc(NC(=O)/C=C/c2cccs2)c1 | inconclusive: 1.84 µM [activator, full curve] |  |
| Cn1cc(C=O)c(-c2ccc3c(c2)OCCCO3)n1 | inconclusive: 20.6 µM [activator, partial curve, poor fit] |  |
| O=C(NCc1ccc(-c2nc3ccccc3s2)cc1)c1ccc(Br)o1 | inconclusive: 16.4 µM [activator, partial curve, poor fit] |  |
| COc1ccc(CC(=O)N(C)CC(=O)Nc2ccc(F)cc2)cc1S(=O)(=O)N1CCOCC1 |  | inactive: 3.2% |
| COc1cccc(-c2nnc(N(C)C(=O)c3ccno3)s2)c1 | inconclusive: 11.6 µM [activator, partial curve, poor fit] |  |
| Cc1cc(OCC(=O)Nc2cnn(CCCC(=O)O)c2)ccc1[N+](=O)[O-] |  | inactive: 0.313% |
| COc1ccc2c(c1)oc(=O)c1c3ccccc3[nH]c21 | inconclusive: 2.59 µM [activator, full curve, poor fit] |  |
| O=C(/C=C/c1c(F)cccc1Cl)Nc1ncccn1 | inconclusive: 18.4 µM [activator, partial curve] |  |
| Cc1cccc(NC(=O)NC2CCCCCCC2)c1 | inconclusive: 8.2 µM [activator, partial curve] |  |
